{"source": "PubChem BioAssay AID720542", "about": "(National Center for Advancing Translational Sciences (NCATS), 2013)", "note": "Among all 360,000 compounds or so, about 740 (0.21%) were called active. The inconclusive results got no clear call from the source; some entries with a clear call stand among them for comparison. Calls come from the whole dose curve; as a rule, active = well fitted inhibition curve with a large enough effect; inconclusive = small, poorly fitted or top-dose-only effect; inactive = no such curve, though single readings can be large or run the other way. Potencies of inconclusive entries are left out as doubtful fits. Potency is the fitted concentration of half-maximal effect; tags give direction and shape of the fitted curve.", "data": [{"system": "Plasmodium falciparum AMA1 (3D7) - RON2 peptide interaction", "assay": "qHTS for Inhibitors of AMA1-RON; Towards Development of Antimalarial Drug Lead: Primary Screen; note: nearly all actives have a fitted effect of over 45% in size;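 for activity change, negative = inhibition: 0% = vehicle wells and -100% = peptide control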", "conditions": "AlphaScreen AMA1-biotinylated RON2 peptide binding; activity change, negative = inhibition: at 58.2 µM (top of the series) unless noted", "how_it_was_run": "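AMA1 (3D7) with his tag at 25 nM final met compounds first, then biotinylated RON2 peptide at 25 nM; detection used donor plus acceptor beads, 10 µg/mL apiece, read by AlphaScreen after 30 min at room temperature.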", "values": [{"smiles": "CCCCC[C@@H](C)N1C[C@@H](COCc2ccccc2)Oc2cc(N3CC[C@@H](N(C)C)C3)ccc2S1(=O)=O", "Potency": "inconclusive [inhibitor, full curve]"}, {"smiles": "CCCCC(=O)Nc1ccc(C(=O)NCCc2ccccc2)cc1", "Potency": "inconclusive [inhibitor, partial curve]"}, {"smiles": "CCOc1ccc(NC(C(=O)Nc2cccc(C(C)=O)c2)c2ccccc2)cc1", "note": "(centres undefined)", "Potency": "inconclusive [inhibitor, partial curve]"}, {"smiles": "CC1CCC(N2CCN(c3ccc([N+](=O)[O-])cc3)CC2)CC1", "note": "(centres undefined)", "Potency": "inconclusive [inhibitor, partial curve]"}, {"smiles": "CC(=NNc1nc2ccccc2o1)c1cc2ccccc2cn1", "Potency": "inconclusive [inhibitor, single point]"}, {"smiles": "Cc1cc(NCCCN2CCOCC2)n2nc(C)c(-c3ccc(F)cc3)c2n1", "Potency": "inconclusive [inhibitor, partial curve]"}, {"smiles": "O=C(OCC1OC(n2ncc(=O)[nH]c2=O)C(OC(=O)c2ccccc2)C1OC(=O)c1ccccc1)c1ccccc1", "note": "(centres undefined)", "Potency": "inconclusive [inhibitor, single point]"}, {"smiles": "CCCc1nc(-c2cc3ccccc3[nH]c2=O)no1", "Potency": "inconclusive [inhibitor, single point]"}, {"smiles": "COc1cc2c(cc1OC)C(c1ccc(-c3ccccc3Cl)o1)=NCC2", "Potency": "inconclusive [inhibitor, single point]"}, {"smiles": "O=C(Nc1ccccc1N1CCCCC1)c1ccc([N+](=O)[O-])o1", "Potency": "inconclusive [inhibitor, single point]"}, {"smiles": "Cc1cccc2c(CCNC(=O)c3ccc([N+](=O)[O-])cc3)c[nH]c12", "Potency": "inconclusive [inhibitor, partial curve]"}, {"smiles": "O=C(/C=C/c1cc(Br)ccc1F)Nc1cccnc1", "Potency": "inactive"}, {"smiles": "Nc1ccc(N2CCN(C(=O)c3ccco3)CC2)cc1", "Potency": "inconclusive [inhibitor, full curve, poor fit]"}, {"smiles": "COc1cc(/C=C2/C(=N)N3C=CSC3=NC2=O)ccc1OCCCOc1ccccc1C", "Potency": "inactive"}, {"smiles": "CC(=NNC(=S)N(Cc1ccccn1)Cc1ccccn1)c1cnccn1", "Potency": "inconclusive [inhibitor, single point]"}, {"smiles": "CCOc1ccccc1N1CCN(S(=O)(=O)c2ccc3c4c(cccc24)C(=O)N3)CC1", "Potency": "inconclusive [inhibitor, partial curve]"}, {"smiles": "NCC(=O)Nc1ccc(Cl)cc1C(=O)c1ccc[nH]1", "Potency": "inconclusive [inhibitor, single point]"}, {"smiles": "COc1ccc(OC)c(CN2CCN(C(=O)Cc3ccccc3)CC2)c1", "Potency": "inconclusive [inhibitor, single point]"}, {"smiles": "O=C1CCCc2c1cc(-c1ccccc1)n2-c1ccccc1", "Potency": "inconclusive [inhibitor, single point]"}, {"smiles": "COc1ccc(-c2sc3cc(OC)ccc3c2-c2ccc(OCCN3CCOCC3)cc2)cc1", "Potency": "inconclusive [inhibitor, partial curve]"}, {"smiles": "CCc1cc[n+](C2=C([O-])c3ccccc3C(=O)/C2=N\\S(=O)(=O)c2cccs2)cc1", "Potency": "inconclusive [inhibitor, partial curve]"}, {"smiles": "COc1ccc(OC)c(NC(=O)C2CCN(Cc3cnn(-c4ccccc4)c3-n3cccc3)CC2)c1", "Potency": "inconclusive [inhibitor, partial curve, poor fit]"}, {"smiles": "COc1ccc(Nc2nc(NC(C)(C)C)nc(N3CCCC3)n2)c(OC)c1", "Potency": "inconclusive [inhibitor, partial curve]"}, {"smiles": "Cc1cc(C)c(C)c(S(=O)(=O)N2CCN(c3ccc(O)cc3)CC2)c1C", "Potency": "inconclusive [inhibitor, single point]"}, {"smiles": "CC(C)(C)NC(=O)CN(C(=O)CNC(=O)c1cccs1)c1ccc2c(c1)OCCO2", "Potency": "inconclusive [inhibitor, single point]"}, {"smiles": "O=[N+]([O-])c1ccc(C=NN2CCCCCC2)cc1", "Potency": "active: 25.1 µM"}, {"smiles": "O=C(Cn1nc2ccccc2n1)N/N=C/c1ccc(F)cc1", "Potency": "inactive"}, {"smiles": "O=C(C1CCCN(Cc2ccccc2)C1)N1CCc2ccccc2C1", "note": "(centres undefined)", "Potency": "inconclusive [inhibitor, single point]"}, {"smiles": "O=C(Nc1cccc(NC(=O)c2ccc(Br)o2)n1)c1ccc(Br)o1", "Potency": "inconclusive [inhibitor, partial curve]"}, {"smiles": "CCCCC[C@@H](C)N1C[C@@H](COCc2ccccc2)Oc2cc(N3CC[C@H](N(C)C)C3)ccc2S1(=O)=O", "Potency": "inconclusive [inhibitor, partial curve]"}, {"smiles": "CC(C)C1C(=O)N(Cc2cn(CCC3OCCO3)nn2)CCS(=O)(=O)N1Cc1ccc(-c2cccc(N(C)C)c2)cc1", "note": "(centres undefined)", "Potency": "active: 17.8 µM"}, {"smiles": "CCS(=O)(=O)N1CCN(Cc2ccc([N+](=O)[O-])cc2)CC1", "Potency": "inconclusive [inhibitor, single point]"}, {"smiles": "O=C(OCc1csc(-c2ccccc2)n1)c1ccc(O)cc1", "Potency": "inactive"}, {"smiles": "CN(C)CCn1c(=O)n(Cc2ccccc2)c(=O)c2c3c(sc21)CCCCC3", "Potency": "inconclusive [inhibitor, single point]"}, {"smiles": "Cc1ccc(C(=O)CNc2ccc(C)cc2C)cc1", "Potency": "inconclusive [inhibitor, single point]"}, {"smiles": "Cc1cc(C)c(C#N)c(SCCN2CCCCC2)n1", "Potency": "inconclusive [inhibitor, single point]"}, {"smiles": "S=C(NCC1CCCO1)Nc1ccccc1", "note": "(centres undefined)", "Potency": "inactive"}, {"smiles": "Cc1n[nH]c(=S)n(/N=C/c2ccccn2)c1=O", "Potency": "inconclusive [inhibitor, single point]"}, {"smiles": "COc1ccccc1CCc1nnc(CCC(=O)NCC[C@@H]2C[C@@H]3C=C[C@H]2C3)o1", "Potency": "inconclusive [inhibitor, single point]"}, {"smiles": "CC(C)N1CCN(S(=O)(=O)c2ccccc2)CC1", "Potency": "inconclusive [inhibitor, partial curve]"}, {"smiles": "Cc1ccc(NC(=O)COC(=O)C2(c3ccc(Cl)cc3)CCCC2)cc1", "activity change, negative = inhibition": "inconclusive: -19.5% [inhibitor]"}, {"smiles": "C=CCc1cc(OC)ccc1OCCOCCN1CCc2ccccc2C1", "Potency": "inconclusive [inhibitor, single point]"}, {"smiles": "Cc1ccc2nc(N(CCCN(C)C)C(=O)c3cc(-c4cccs4)nc4ccccc34)sc2c1", "Potency": "inconclusive [inhibitor, partial curve]"}, {"smiles": "COc1ccc(N2CCN(C(=O)c3ccc4c(Cl)c5c(nc4c3)CCCC5)CC2)cc1", "Potency": "inconclusive [inhibitor, partial curve]"}, {"smiles": "Cc1cccc(OCCN2C(=O)C(=O)c3cc(C)ccc32)c1", "Potency": "inconclusive [inhibitor, partial curve]"}, {"smiles": "CCOc1ccc(NC(=O)CN(C)C(=O)c2n[nH]c(=O)c3ccccc23)cc1OCC", "Potency": "inactive"}, {"smiles": "CCOc1ccc2oc(C(=O)N3CCN(c4ccccn4)CC3)c(C)c2c1", "Potency": "inconclusive [inhibitor, partial curve]"}, {"smiles": "NC(=S)N=Nc1ccc(NN=C(N)N)cc1", "Potency": "inconclusive [inhibitor, partial curve]"}, {"smiles": "O=C(Nc1ccccc1)C1Cc2c(-c3ccc(Cl)cc3)ccnc2O1", "note": "(centres undefined)", "Potency": "inactive"}, {"smiles": "CC(C)C(C(=O)O)N1C(=O)/C(=C/C=C/c2ccco2)SC1=S", "note": "(centres undefined)", "Potency": "inconclusive [inhibitor, single point]"}, {"smiles": "CCc1ccc(/C=C2/SC(=S)N(CCCC(=O)Nc3ccccc3C(=O)O)C2=O)cc1", "Potency": "inconclusive [inhibitor, single point]"}, {"smiles": "O=C(Nc1cccc(S(=O)(=O)N2CCCCC2)c1)c1cc([N+](=O)[O-])ccc1N1CCOCC1", "Potency": "inconclusive [inhibitor, partial curve, poor fit]"}, {"smiles": "O=C(c1ccc(COc2ccccc2Cl)o1)N1CCOCC1", "Potency": "inactive"}, {"smiles": "CCc1noc(C)c1C(=O)Nc1nc(-c2ccc(Cl)cc2Cl)c(C)s1", "Potency": "inconclusive [inhibitor, full curve]"}, {"smiles": "C[C@@H]1c2ccccc2N2C[C@H](Cc3ccc(C(=O)c4ccccc4)cc3)C[C@@H]12", "Potency": "inconclusive [inhibitor, partial curve]"}, {"smiles": "CC#C[C@]1(O)CC[C@H]2[C@@H]3CCC4=CC(=O)CCC4=C3[C@@H](c3ccc(N(C)C)cc3)C[C@@]21C", "Potency": "inconclusive [inhibitor, partial curve]"}, {"smiles": "CN(C)c1ccc(NC(=O)CN2CCN(S(=O)(=O)c3cc(Cl)ccc3Cl)CC2)cc1", "Potency": "inconclusive [inhibitor, partial curve]"}, {"smiles": "C=C1C(=O)O[C@@]23[C@H]1CC[C@@H](C)[C@@H]2CC[C@@]1(C)O[C@@H]31", "Potency": "inactive"}, {"smiles": "CCOc1ccccc1NC(=O)COc1coc(CN2CCCc3ccccc32)cc1=O", "Potency": "inconclusive [inhibitor, single point]"}, {"smiles": "Cc1ccc(C(=O)N(CCCN(C)C)c2nc3ccc(Cl)cc3s2)cc1C", "Potency": "inconclusive [inhibitor, single point]"}, {"smiles": "CC(C)n1c(-c2ccco2)csc1=Nc1cccnc1", "Potency": "inconclusive [inhibitor, partial curve]"}, {"smiles": "CCCCNC(=S)N(Cc1c(C)noc1C)c1ccccc1", "activity change, negative = inhibition": "inactive: -4.82% [at 11.6 µM]"}, {"smiles": "COc1cccc(OC)c1C(=O)N1CCN=C1SCc1cccnc1", "Potency": "inconclusive [inhibitor, single point]"}, {"smiles": "COc1cc(N(Cc2ccccc2)Cc2ccccc2)c2ncn(C(C)C)c2c1", "Potency": "inconclusive [inhibitor, partial curve]"}]}]}
